The list shows a part of the results.
Experiments:
Assay in all cases: glycan array binding signal (z-score within array); higher = stronger binding
Conditions in all cases: glycan notation: IUPAC condensed, linker removed
Gal3S(b1-4)Glc = target: Gal3S(b1-4)Glc
Outline: (§1)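 Glycan array binding is given as a within-array Z-score, which can be read as non-binding when negative. The arrays, 3228 of them, came from the Consortium for Functional Glycomics database and were retained only where the protein sequence was available. Z-scores were averaged across arrays of the same protein sequence at different concentrations or buffers and across linkers.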

Gal3S(b1-4)Glc6S = target: Gal3S(b1-4)Glc6S
Outline: as §1

Gal3S(b1-4)GlcNAc = target: Gal3S(b1-4)GlcNAc
Outline: as §1

[1] = target: Gal3S(b1-4)[Fuc(a1-3)]Glc6S
Outline: as §1

[2] = target: Gal3S(b1-4)[Fuc(a1-3)]GlcNAc
Outline: as §1

[3] = target: Gal3S(b1-4)[Fuc(a1-3)]GlcNAc6S
Outline: as §1

Gal3S4S(b1-4)GlcNAc = target: Gal3S4S(b1-4)GlcNAc
Outline: as §1

Gal3S6S(b1-4)GlcNAc = target: Gal3S6S(b1-4)GlcNAc
Outline: as §1

Gal3S6S(b1-4)GlcNAc6S = target: Gal3S6S(b1-4)GlcNAc6S
Outline: as §1

Gal4S(b1-4)GlcNAc = target: Gal4S(b1-4)GlcNAc
Outline: as §1

Gal4S6S(b1-4)GlcNAc = target: Gal4S6S(b1-4)GlcNAc
Outline: as §1

Gal6P(b1-4)GlcNAc = target: Gal6P(b1-4)GlcNAc
Outline: as §1

Gal6S(b1-3)GlcNAc = target: Gal6S(b1-3)GlcNAc
Outline: as §1

Gal6S(b1-3)GlcNAc6S = target: Gal6S(b1-3)GlcNAc6S
Outline: as §1

Gal6S(b1-4)Glc = target: Gal6S(b1-4)Glc
Outline: as §1

Gal6S(b1-4)Glc6S = target: Gal6S(b1-4)Glc6S
Outline: as §1

Gal6S(b1-4)GlcNAc = target: Gal6S(b1-4)GlcNAc
Outline: as §1

Gal6S(b1-4)GlcNAc6S = target: Gal6S(b1-4)GlcNAc6S
Outline: as §1

GalNAc(a1-3)Gal = target: GalNAc(a1-3)Gal
Outline: as §1

GalNAc(a1-3)GalNAc = target: GalNAc(a1-3)GalNAc
Outline: as §1

[4] = target: GalNAc(a1-3)GalNAc(b1-3)Gal(a1-4)Gal(b1-4)Glc
Outline: as §1

[5] = target: GalNAc(a1-3)GalNAc(b1-3)Gal(a1-4)Gal(b1-4)GlcNAc
Outline: as §1

GalNAc(b1-3)Gal = target: GalNAc(b1-3)Gal
Outline: as §1

[6] = target: GalNAc(b1-3)Gal(a1-4)Gal(b1-4)GlcNAc
Outline: as §1

[7] = target: GalNAc(b1-3)Gal(a1-4)Gal(b1-4)GlcNAc(b1-3)Gal(b1-4)Glc
Outline: as §1

[8] = target: GalNAc(b1-3)Gal(a1-6)Gal(b1-4)Glc
Outline: as §1

GalNAc(b1-3)GalNAc = target: GalNAc(b1-3)GalNAc
Outline: as §1

GalNAc(b1-3)GlcNAc = target: GalNAc(b1-3)GlcNAc
Outline: as §1

GalNAc(b1-4)Gal(b1-4)Glc = target: GalNAc(b1-4)Gal(b1-4)Glc
Outline: as §1

GalNAc(b1-4)GlcNAc = target: GalNAc(b1-4)GlcNAc
Outline: as §1

[9] = target: GalNAc(b1-4)GlcNAc(b1-2)Man
Outline: as §1

[10] = target: GalNAc(b1-4)GlcNAc(b1-2)Man(a1-3)[GalNAc(b1-4)GlcNAc(b1-2)Man(a1-6)]Man(b1-4)GlcNAc(b1-4)GlcNAc
Outline: as §1

[11] = target: GalNAc(b1-4)GlcNAc(b1-3)GalNAc(b1-4)GlcNAc
Outline: as §1

GalNAc(b1-4)GlcNAc6S = target: GalNAc(b1-4)GlcNAc6S
Outline: as §1

GalNAc(b1-6)GalNAc = target: GalNAc(b1-6)GalNAc
Outline: as §1

GalNAc3S(b1-4)GlcNAc = target: GalNAc3S(b1-4)GlcNAc
Outline: as §1

GalNAc3S(b1-4)GlcNAc3S = target: GalNAc3S(b1-4)GlcNAc3S
Outline: as §1

B1: GS13686A-pdi-553-26-553 (Parabacteroides distasonis) (protein)
chain: NENPDKPTDDVNYNMNEPRLASTLRGGLIIEGNVEQRLKPLQIDFYSQMTVDGGGWGTKNYIQDDEWNNLVWEEYLKQIASINIVIRSLTEKDKDAYANTIAFARIWRVYVHTLAADKFGPMPFPAYEIVEANPPYKSLKDIYDEYFRELDAAINGFNDSAQPIFSDAGIDLIYKNDVSKWKRFANSLRLRLAVRLTEVDQEKCIAEANAAISSPAGLISDKADNAYMPPKADGSWGQDYNYTMFQITWSGPICMSKSVEKLVTNIGGVAWPQGVVNQTSGVAVSSVHPEKVDPRAPKIFQPGIENGDWKGLVYGPKAEEANTGIYQSKQCAELGFIIKDGYPYKSRPYDLFLSEEVHFLKAELYARGFIAGDAKSEYEAGVRASFATWGVTSEVDDYLTSTEKNEAGTSARYDDQQGAGNTALEKIITQKYIAGIPDLAQEGWNDKRRLNLPRLDVAVYRDQAVYNNNDKDILKSANFIKRMRYPTKESLINATEYEKGKSMLGGKGDIVSTPLWWDKNSNYCTSSK
- glycan array binding signal (z-score) (Gal3S(b1-4)Glc): -0.293
- glycan array binding signal (z-score) (Gal3S(b1-4)Glc6S): -0.181
- glycan array binding signal (z-score) (Gal3S(b1-4)GlcNAc): 0.125
- glycan array binding signal (z-score) [1]: 0.425
- glycan array binding signal (z-score) [2]: 0.256
- glycan array binding signal (z-score) [3]: 0.003
- glycan array binding signal (z-score) (Gal3S4S(b1-4)GlcNAc): 0.177
- glycan array binding signal (z-score) (Gal3S6S(b1-4)GlcNAc): -0.13
- glycan array binding signal (z-score) (Gal3S6S(b1-4)GlcNAc6S): -0.19
- glycan array binding signal (z-score) (Gal4S(b1-4)GlcNAc): 0.254
- glycan array binding signal (z-score) (Gal4S6S(b1-4)GlcNAc): -0.295
- glycan array binding signal (z-score) (Gal6P(b1-4)GlcNAc): -0.36
- glycan array binding signal (z-score) (Gal6S(b1-3)GlcNAc): 22.6
- glycan array binding signal (z-score) (Gal6S(b1-3)GlcNAc6S): 0.093
- glycan array binding signal (z-score) (Gal6S(b1-4)Glc): 0.432
- glycan array binding signal (z-score) (Gal6S(b1-4)Glc6S): 0.291
- glycan array binding signal (z-score) (Gal6S(b1-4)GlcNAc): 0.374
- glycan array binding signal (z-score) (Gal6S(b1-4)GlcNAc6S): -0.176
- glycan array binding signal (z-score) (GalNAc(a1-3)Gal): -0.145
- glycan array binding signal (z-score) (GalNAc(a1-3)GalNAc): -0.259
- glycan array binding signal (z-score) [4]: -0.428
- glycan array binding signal (z-score) [5]: -0.263
- glycan array binding signal (z-score) (GalNAc(b1-3)Gal): -0.266
- glycan array binding signal (z-score) [6]: -0.089
- glycan array binding signal (z-score) [7]: -0.315
- glycan array binding signal (z-score) [8]: 0.035
- glycan array binding signal (z-score) (GalNAc(b1-3)GalNAc): -0.33
- glycan array binding signal (z-score) (GalNAc(b1-3)GlcNAc): -0.265
- glycan array binding signal (z-score) (GalNAc(b1-4)Gal(b1-4)Glc): 0.208
- glycan array binding signal (z-score) (GalNAc(b1-4)GlcNAc): -0.128
- glycan array binding signal (z-score) [9]: -0.267
- glycan array binding signal (z-score) [10]: -0.173
- glycan array binding signal (z-score) [11]: 0.492
- glycan array binding signal (z-score) (GalNAc(b1-4)GlcNAc6S): 0.797
- glycan array binding signal (z-score) (GalNAc(b1-6)GalNAc): -0.233
- glycan array binding signal (z-score) (GalNAc3S(b1-4)GlcNAc): -0.263
- glycan array binding signal (z-score) (GalNAc3S(b1-4)GlcNAc3S): -0.096

Reference: the supplement of paper PMC8728848
